Measured values taken from PubChem BioAssay AID588579 (National Center for Advancing Translational Sciences (NCATS), 2011).
Where “and” joins values, the source holds several entries; their conditions need not be identical. Equal entries are not always repeated. About 2,200 (0.55%) of roughly 400,000 compounds were called active. Roughly 1% stayed inconclusive and do not appear here. Calls follow the shape of the dose curve; as a rule, active = well fitted inhibition curve with a large enough effect; inconclusive = small, poorly fitted or top-dose-only effect, or another doubt; inactive = no such curve, though single readings can be large or run the other way. This is a selection; strong and weak results do not stand in their true shares. More than one record can exist for a structure, and the calls need not agree.

Each molecule was assayed against DNA polymerase kappa (Homo sapiens) (UniProt Q9UBT6) (assay: qHTS for Inhibitors of Polymerase Kappa). Conditions: purified Pol kappa, fluorescent DNA synthesis assay, 10 min; series mostly up to 107 µM; activity, negative = inhibition: at the top concentration.
Procedure, shortened: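 10 nM Pol kappa preincubated 15 min at room temperature with compounds, then reaction started with substrate at 50 nM final. Fluorescence read kinetically at 0 and 10 min; buffer-only wells served as negative control.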
% is scaled to controls: 0 for no effect and ±100 for the full control effect; potency is read from the fitted curve at half-maximal effect.

Sequence of UniProt Q9UBT6 (Q9UBT6 whole entry, looked up): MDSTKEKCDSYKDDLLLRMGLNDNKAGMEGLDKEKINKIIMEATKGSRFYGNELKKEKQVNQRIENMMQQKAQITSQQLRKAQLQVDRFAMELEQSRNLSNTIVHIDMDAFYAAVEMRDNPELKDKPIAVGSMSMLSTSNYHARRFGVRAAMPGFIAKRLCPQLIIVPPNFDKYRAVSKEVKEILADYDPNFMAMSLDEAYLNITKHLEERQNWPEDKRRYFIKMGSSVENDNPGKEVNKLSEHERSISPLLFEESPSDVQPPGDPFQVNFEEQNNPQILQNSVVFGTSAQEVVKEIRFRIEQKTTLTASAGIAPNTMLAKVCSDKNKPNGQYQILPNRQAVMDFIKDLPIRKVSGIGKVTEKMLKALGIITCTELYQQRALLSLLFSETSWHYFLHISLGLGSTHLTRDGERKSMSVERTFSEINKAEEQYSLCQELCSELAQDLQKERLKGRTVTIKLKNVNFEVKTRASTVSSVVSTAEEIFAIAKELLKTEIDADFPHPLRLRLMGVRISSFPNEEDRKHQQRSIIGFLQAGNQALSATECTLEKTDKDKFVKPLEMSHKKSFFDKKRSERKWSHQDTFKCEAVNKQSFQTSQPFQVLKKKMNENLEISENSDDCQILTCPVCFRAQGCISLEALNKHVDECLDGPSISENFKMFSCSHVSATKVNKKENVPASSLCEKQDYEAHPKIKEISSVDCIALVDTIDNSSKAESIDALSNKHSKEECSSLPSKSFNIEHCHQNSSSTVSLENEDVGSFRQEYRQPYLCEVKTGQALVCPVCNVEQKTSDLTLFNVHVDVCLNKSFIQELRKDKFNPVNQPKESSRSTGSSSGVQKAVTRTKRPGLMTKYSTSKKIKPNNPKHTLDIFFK

| Molecule | Potency | activity, negative = inhibition |
| --- | --- | --- |
| C=CC(C)(O)CCCC(C)CCCC(C)CCCC(C)C (stereo unspecified) | inactive |  |
| CN1CCC[C@@H]1CCO[C@](C)(c1ccccc1)c1ccc(Cl)cc1 | inactive |  |
| CC(C)=CCc1c2c(c3occ(-c4ccc(O)cc4)c(=O)c3c1O)C=CC(C)(C)O2 |  | inactive: -15.9% |
| COC(=O)C1=C(C)NC(C)=C(C(=O)OCCN(C)Cc2ccccc2)C1c1cccc([N+](=O)[O-])c1 (stereo unspecified) | inactive |  |
| Cc1oc2c(cc(NS(=O)(=O)c3ccc(C(C)C)cc3)c3ccccc32)c1C(=O)O |  | inactive: -37.2% |
| N[C@H](CCC(=O)NCC(=O)O)C(=O)O | inactive |  |
| CC1=CC(c2ccccc2)n2nc(N3C(=O)c4ccccc4C3=O)nc2N1 (stereo unspecified) | active: 44.7 µM |  |
| O=C(C[C@H]1C/C=C\CC[C@H](Cc2ccc(F)cc2)C(=O)O[C@@H](c2ccccc2)CNC1=O)N[C@H](CO)Cc1ccccc1 |  | inactive: -7.64% |
| CCC(C)C(N)C(=O)O (stereo unspecified) |  | inactive: 0.427% [at 19.4 µM] |
| O=C(N/N=C/C(Br)=C\c1ccccc1)c1n[nH]c2c1CCC2 |  | inactive: -1.35% |
| COc1cc(NC(=O)CSc2ncc3c(n2)-c2ccc(Cl)cc2N(Cc2ccccc2)S3(=O)=O)cc(OC)c1 |  | inactive: 23% |
| CC(O)C(N)C(=O)O (stereo unspecified) |  | inactive: 6.26% [at 60.1 µM] |
| H-TNEIVEEQYTPQSLATLESVFQELGKLTGPNSQ-OH |  | inactive: 19.7% [at 60.1 µM] |
| CC(C)(C)c1ccc(N2C[C@@H](COc3ccc(C(=O)O)cc3)CC2=O)cc1 |  | inactive: 19.5% [at 60.1 µM] |
| Nc1nnc(CC(=O)N/N=C/c2ccc(-c3cccc(C(=O)O)c3)o2)s1 | active: 25.1 µM |  |
| Cc1ccc2c(=O)c3ccccc3n(CCCN)c2c1C |  | inactive: 16% [at 60.1 µM] |
| Cc1ccc(OCC(=O)c2c(N)n(C)c(=O)n(C)c2=O)c([N+](=O)[O-])n1 | active: 35.5 µM |  |
| COC(=O)Cc1csc(N)n1 |  | inactive: -8.58% |
| CCn1cc(C(=O)NCCc2ccc(OC)c(OC)c2)c(=O)c2cc(S(=O)(=O)N3CCOCC3)ccc21 |  | inactive: 2.49% |
| CC(=O)Nc1ccc(SCCN2CC[C@@H](O)CCC2=O)cc1 |  | inactive: -4.42% |
| CCC(=O)Nc1ccc2nc3c(=O)[nH]c(=S)[nH]c3nc2c1 | active: 44.7 µM |  |

| Molecule | Potency | activity, negative = inhibition |
| --- | --- | --- |
| CC(C)(CO)Cc1cc(C(C)(C)C)c(O)c(C(C)(C)C)c1 | inactive |  |
| COc1ccc(-c2cc(=O)c3c(OC)c(OC)c(OC)cc3o2)cc1OC |  | inactive: 20.1% [at 60.1 µM] |
| N#Cc1c(SCC(=O)Nc2nncs2)sc2c(O)cc(=O)[nH]c12 | active: 8.91 µM |  |
| O=C(O)CCCCC1CCSS1 (stereo unspecified) | active: 6.7 µM |  |
| C[C@@H]1O[C@@H](OC[C@H]2O[C@@H](Oc3c(-c4ccc(O)cc4)oc4cc(O)cc(O)c4c3=O)[C@H](O)[C@@H](O)[C@@H]2O)[C@H](O)[C@H](O)[C@H]1O |  | inactive: -15.5% |
| CCOC(=O)C1Oc2ccccc2C(c2ccc(OC)cc2)=C1C(=O)OC (stereo unspecified) |  | inactive: 5.04% |
| O=C(O)c1ccc(-n2cccc2/C=C2/NC(=O)N(c3cccc(Cl)c3)C2=O)cc1 | active: 15.8 µM |  |
| CC(CCc1ccccc1)NC(=O)C1CC1 (stereo unspecified) |  | inactive: 33.3% |
| C=C1C(=O)O[C@@H]2[C@H]3O[C@]3(C)CCC=C(C)CC[C@@H]12 |  | inactive: 5.13% [at 60.1 µM] |
| CCC(C)n1ncn(-c2ccc(N3CCN(c4ccc(OCC5COC(Cn6cncn6)(c6ccc(Cl)cc6Cl)O5)cc4)CC3)cc2)c1=O (stereo unspecified) |  | inactive: -22.7% |
| CC(=O)Oc1cc2cccc(OC(C)=O)c(=O)c2c(OC(C)=O)c1OC(C)=O | active: 1 µM |  |
| CCOC(=O)[C@@H]1[C@H]2COc3cc(OC)ccc3[C@@H]2N2C(=O)N(c3cccc(F)c3)C(=O)[C@@]12C |  | inactive: 11.4% |
| N.N.O=C(O)C1(C(=O)O)CCC1.[Pt] | active: 22.4 µM |  |
| NC(=O)[C@@H]1CCCN1C(=O)[C@@H](Cc1cnc[nH]1)NC(=O)[C@@H]1CCC(=O)N1 |  | inactive: -0.251% |
| Cc1cc(-c2csc(N)n2)c(C)n1Cc1ccco1 | active: 10 µM |  |
| O=C1C(SCCO)=C(SCCO)C(=O)c2ccccc21 | inactive |  |
| COc1cc(/C=C/C(=O)CC(=O)/C=C/c2ccc(O)c(OC)c2)ccc1O | inactive |  |
| O=C(CSc1nc(NS(=O)(=O)c2ccccc2)cc(=O)[nH]1)Nc1ccc(F)cc1 | active: 50.1 µM |  |
| CCC(=O)NC1CCc2cccc(OC)c2C1 (stereo unspecified) |  | inactive: -0.283% [at 19.4 µM] |
| CCCC1Nc2ccc(C(=O)O)cc2C2C=CCC12 (stereo unspecified) | active: 35.5 µM |  |
| N[C@@H](CSSC[C@H](N)C(=O)O)C(=O)O |  | inactive: 21.6% [at 60.1 µM] |

| Molecule | Potency | activity, negative = inhibition |
| --- | --- | --- |
| N#CCC(=O)c1sccc1-n1cccc1 | active: 79.4 µM |  |
| O=C(O)C(c1ccccc1)N1C(=O)/C(=C\c2ccc(O)c(O)c2)SC1=S (stereo unspecified) | active: 7.08 µM |  |
| CCCCCN=C(N)N/N=C/c1c[nH]c2ccc(OC)cc12 | inactive |  |
| OC[C@@H]1[C@@H](c2ccccc2)C(c2ccccc2)=NN1c1ccccc1 |  | inactive: -1.45% |
| O=C(O)c1ccc2c(c1)C(=O)/C(=C\c1ccco1)C2=O | active: 8.91 µM |  |
| Oc1c(Br)cc(Br)cc1/C=N/c1nc2c(s1)CCCC2 | active: 79.4 µM |  |
| C=C1C(=O)OC(CCCCCCCC)C1C(=O)O (stereo unspecified) |  | inactive: 12.8% [at 60.1 µM] |
| O=[N+]([O-])c1cccc2c[nH]nc12 | active: 12.6 µM |  |
| OC[C@@H]1[C@@H](c2ccccc2)C(c2cccc(Cl)c2)=NN1c1ccccc1 |  | inactive: -2.03% |
| CSc1ccc2c(c1)[C@H](N1CCN(C)CC1)Cc1ccccc1S2 |  | inactive: -4.65% [at 12 µM] and inactive: -11.9% [at 19.4 µM] |
| Cc1ccc(/C=C2\C(=O)ON=C2c2ccccc2)o1 |  | inactive: -1.14% |
| NC(N)=NCCC[C@H](N)C(=O)NCC(=O)N[C@@H](CC(=O)O)C(=O)O |  | inactive: 15.5% [at 60.1 µM] |
| O=C(NC1CCN(CCc2c[nH]c3ccccc23)CC1)c1ccccc1 | inactive |  |
| O=C(NNC(=O)c1cc2cc3ccccc3nc2s1)c1cccc(Cl)c1 | active: 79.4 µM |  |
| Cc1cc(N)c2ccccc2[n+]1CCCCCCCCCC[n+]1c(C)cc(N)c2ccccc21 |  | inactive: -10% [at 12 µM] |
| Nc1nc2ncc(CNc3ccc(C(=O)NC(CCC(=O)O)C(=O)O)cc3)nc2c(=O)[nH]1 (stereo unspecified) | inactive |  |
| Cc1ccc(N(CC(=O)NCc2ccc(F)cc2)S(=O)(=O)c2c(C)nn(C)c2C)cc1 |  | inactive: 11.5% |
| N#CC(C#N)=C(N)/C(C#N)=C/c1cc(O)c(O)c(O)c1 | active: 0.794 µM |  |
| C=CCc1cccc(C=NNC(=O)CN2CCN(Cc3ccccc3)CC2)c1O |  | inactive: -2.1% [at 60.1 µM] |
